For the data set the following is noted: Escherichia coli (strain K12), pH 7, Hepes 5 mM, transition: 2, reversible: no.

The Tm is the temperature at which the thermal transition is half complete. For “Thioredoxin 1 wild type (letters omitted)”, for the setting “25 °C, Urea, fluorescence”, the denaturant m value was found to be 1.28 kcal/mol/M and the “denaturant midpoint (higher = more stable)” value was 6.92 M. Besides, under “Thermal, DSC”, the midpoint of thermal melting (Tm) stood at 89 °C, the “heat capacity change of unfolding” value is 1.39 kcal/mol/K and the “unfolding enthalpy (calorimetric)” value amounted to 103 kcal/mol.
